Data reported in a collection of fitness landscapes (doi:10.1016/j.celrep.2020.107928).
Whole data set: some 81,000 sequences, median “one-hybrid fitness for binding parS DNA” near -0.17, cut for the highest 2% near 0.51. This is one part of the list.

B1: Caulobacter ParB omega fusion; a variant is named by its letters at X, in order, B8GW30 (parent)
chain: MESVVVGEPGMSEGRRGLGRGLSALLGEVDAAPAQAPGEQLGGSREAPIEILQRNPDQPRRTFREEDLEDLSNSIREKGVLQPILVRPSPDTAGEYQIVAGERAWRAAQRAGLKTVPIMVRELDDLAVLEIGIIENVQRADLNVLEEALSYKVLMEKFERTQENIAQTIGKSXSHVANXMRLLXLPDEVQSYLVSGELTAXHARAIAAAADPVALAKQIIEGGLSVRETEALARKAPNLSAGKSKGGRPPRVKDTDTQALESDLSSVLGLDVSIDHRGSTGTLTITYATLEQLDDLCNRLTRGI

Variants of: B1
Assay: one-hybrid fitness for binding parS DNA (scaled: cognate 1, non-cognate 0); higher = stronger binding
Settings: with parS DNA site
Outline: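 On M9-minus-histidine containing 0.1 mM IPTG and 5 mM 3-AT, E. coli USO cells with a HIS3 reporter, site 19 bp from the promoter, grew 48 hours at 37°C to select Caulobacter ParB libraries randomised at four specificity codons. Plasmids from before and after were Illumina-sequenced, with three replicate libraries pooled and variants under 10 reads left out. Fitness is the log change in variant-to-wild-type read ratio, rescaled against cognate and non-cognate.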

one-hybrid fitness for binding parS DNA, ≤ 0.2:
VCLK
GSYS
VSRY
WVTG
SPKS
CKYG
TCDS
GFEG
KQRT
RMSL
YDLR
YGAT
TNAM
PLAQ
PFHS
GYMF
QLRR
DDRL
NERL
VMTF
IYTA
KNKM
MIMG
GANL
YPDW
AQSE
TTRH
MHPG
FGGI
LYAF
TEWV
RKAQ
ASPK
NRMY
PITC
GWFS
LMTV
IDTI
QSFP
LTGN
TPVP
GKEC
HLCP
QMWS
GVFS
YSQS
LSWT
MNRS
VNSC
LKWR
KHNG
CHLN
IETS
DDIT
RMID
AMSS
VKAR
LIYT
RPLQ
EPDR
TFQS
RPDL
HADL
FTIR
PYRY
RVPN
CEHR
QTFW
SPDY
DKVY
GTHR
HARA
APES
QLPC
RCGR
YPEI
HYMF
SDMT
RMTP
QYKA
DRTW
ALMR
GSRN
MHLF
LSDL
VQLM
MATQ
WHKF
RYMK
IYMI
AHAS
FLSG
QVLD
NPVQ
PVPG
FTEL
SANG
VCCY
RALE
GCTA
PKPG
MSGV
PWRL
AAKY
FMIV
ATWP
LMFY
YSTS
DSTR
YCET
LGWS
LIAR
QPPH
RNGD
HMTT
MSCY
RPMN
QDDA
MFSF
QIEW
HLPP
GSPL
LPID
LCSG
VGME
AFEY
DYSA
AKCK
WRYA
VMPS
RAMI
TVSM
SRPI
RIMI
GRHG
MSAT
FACS
QGTS
QPRK
PKGR
YAFL
QCPF
DVPT
QMFC
SVKD
KDKT
RQGV
EVYD
HNNP
KHAR
WVEL
QMEF
NILF
SLQS
NMAL
NRRF
KQAT
GPRV
MHRY
TQSF
DLRE
EKWT
STWR
LDPY
DTTN
SQIT
CRHT
TSCC
SAYR
TLRI
YHCD
QMWT
AYTT
VWGW
LSPP
QRMY
YQPG
QKMH
ACTF
QGLY
YGGL
MNDF
KNTG
HGLG
CTEG
RNTP
RLAQ
RGDI
VSSF
TLVL
KHPD
TQRM
RIYL
DECN
YMHF
QLMD
QHIR
FSKD
RGCA
SFSN
VPTA
YISK
SMMR
TVTP
QIKN
TMSV
MRYM
PHVI
NGMR
KLCA
ACHM
YMHY
NTIE
SFHM
FSYE
SHWV
NEMG
YQTS
QSDH
TQGL
SYGA
SNNF
THVR
YVRG
RMEF
STSC
LVNV
VCSR
GPQV
KAQR
SSWP
GMNR
RPLA
CVMT
CKRR
PTFR
GSAN
KDRS
GYSG
GEPE
QHRN
AMSD
SGLP
KCAN
PVFE
QMGS
GGHT
TSAE
QPLK
QMVV
IVGS
VASY
DMDS
CATA
QEAF
TVHK
GQSR
VSIL
GQTW
VEPH
HNDC
YDAT
YCYS
YVTT
TQGW
YPDY
TCRD
RGFV
SMYI
CLML
SWAY
MWHL
SYHS
EMPR
ASVY
MEPS
AARA
LLYH
DYLM
YQLE
LGKG
QQCS
TNYS
AHYY
ERHR
ARFK
ISQW
LYKG
QFAK
RSSQ
PPDC
PNEP
RGKR

one-hybrid fitness for binding parS DNA, 0.749:
RKST

one-hybrid fitness for binding parS DNA, 0.403:
RYPT

one-hybrid fitness for binding parS DNA, 0.231:
RVEM

one-hybrid fitness for binding parS DNA, 0.526:
RCCY

one-hybrid fitness for binding parS DNA, 0.882:
RNQG

one-hybrid fitness for binding parS DNA, 0.868:
RNMS

one-hybrid fitness for binding parS DNA, 0.261:
RMRH

one-hybrid fitness for binding parS DNA, 0.475:
RCTN

one-hybrid fitness for binding parS DNA, 0.932:
RSRC

one-hybrid fitness for binding parS DNA, 0.363:
RVFM

one-hybrid fitness for binding parS DNA, 0.91:
RAKC

one-hybrid fitness for binding parS DNA, 0.405:
RMDY

one-hybrid fitness for binding parS DNA, 0.791:
RIEC
